{"source": "PubChem BioAssay AID624296", "about": "(National Center for Advancing Translational Sciences (NCATS), 2012)", "note": "In all, about 350,000 compounds went through this assay and about 9,900 (2.8%) were called active. Inconclusive means that the source gave no clear call. Such entries were picked first, then a sample of the others. The call rests on the fitted dose curve; in most records, active means well fitted activation curve with a large enough effect; inconclusive means small, poorly fitted or top-dose-only effect; inactive means no such curve, though single readings can be large or run the other way. No potency is given beside an inconclusive call; the fits are too rough. Potency means the concentration at half of the fitted maximal effect; tags describe the fitted curve by direction and shape."}
{"assay": "A quantitative high throughput screen for small molecules that induce DNA re-replication in MCF 10a normal breast cells; further: nearly all actives have a fitted effect of over 50% in size; on activity, positive = re-replication: % of control where 0% means no effect.", "settings": "MCF 10A DNA re-replication, Hoechst nuclear intensity, 48 h; activity, positive = re-replication: at 46.1 µM (top of the series)"}
{"smiles": "CN(c1ccc(OCc2ccc([N+](=O)[O-])cc2)cc1)S(=O)(=O)c1ccccc1", "Potency": "inconclusive [activator, partial curve, poor fit]"}
{"smiles": "O=[N+]([O-])c1ccc(Cl)cc1P(=O)(O)c1cc(Cl)ccc1[N+](=O)[O-]", "activity, positive = re-replication": "inactive: -1.35%"}
{"smiles": "COc1cccc(-n2nc(-c3ccnn3-c3ccc(C)cc3)c(=O)n(C)c2=O)c1", "Potency": "inconclusive [activator, partial curve, poor fit]"}
{"smiles": "CC1(c2ccc3ccccc3c2)NC(=O)N(CC(=O)N2CCN(Cc3ccc(C#N)cc3)CC2)C1=O", "note": "(stereo not given)", "activity, positive = re-replication": "inactive: 9.32%"}
{"smiles": "O=C(O)Cc1sc(Nc2ccccc2)nc1-c1ccc(Cl)cc1", "Potency": "inconclusive [activator, single point]"}
{"smiles": "OCC1(Cc2ccccc2C(F)(F)F)CCN(Cc2cccc3cnccc23)CC1", "Potency": "inconclusive [activator, partial curve, poor fit]"}
{"smiles": "Cc1cc(C(=O)CSc2nnc(-c3cccnc3)n2-c2ccccc2F)c(C)n1C", "activity, positive = re-replication": "inactive: -50% [at 0.0737 µM]"}
{"smiles": "CC(C)N1CC(O)=C(c2nc3ccccc3[nH]2)C1=N", "activity, positive = re-replication": "inactive: 8.1%"}
{"smiles": "Cc1ccc(S(=O)(=O)N(CC(=O)Nc2cccnc2)c2cccc([N+](=O)[O-])c2)cc1", "Potency": "active: 23.1 µM"}
{"smiles": "O=C(Cc1cccc([N+](=O)[O-])c1)Nc1cccc(C(=O)N2CCOCC2)c1", "activity, positive = re-replication": "inactive: 14.8%"}
{"smiles": "Cc1ccc(-c2nnc(Nc3ccc(C(N)=O)cc3)c3ccccc23)cc1S(=O)(=O)NCC1CCCO1", "note": "(stereo not given)", "Potency": "inconclusive [activator, single point]"}
{"smiles": "COCCN(C(=S)Nc1ccc(OC)cc1)C(C)c1cccs1", "note": "(stereo not given)", "Potency": "inconclusive [activator, partial curve, poor fit]"}
{"smiles": "CCOC(=O)N1CCC(N(CCN(C)C)C(=S)Nc2cccc(Cl)c2C)CC1", "Potency": "inconclusive [activator, single point]"}
{"smiles": "CC(C)c1ccc(NC2CCCN(C(=O)CN3C(=O)CSC3=O)C2)cc1", "note": "(stereo not given)", "Potency": "inconclusive [activator, single point]"}
{"smiles": "CC1CCc2nc(NC(=O)Nc3ccc4c(c3)OCO4)sc2C1", "note": "(stereo not given)", "Potency": "inconclusive [activator, single point]"}
{"smiles": "O=C1CSC(c2cccnc2)N1Cc1ccc(Cl)c(Cl)c1", "note": "(stereo not given)", "activity, positive = re-replication": "inactive: 1.82%"}
{"smiles": "Cc1cccc(C(=O)Nc2nnc(-c3cccnc3)o2)c1", "activity, positive = re-replication": "inactive: -6.63%"}
{"smiles": "N/C(=N\\OC(=O)/C=C/c1ccccc1)c1ccncc1", "activity, positive = re-replication": "inactive: 14.3%"}
{"smiles": "CC1(C)Cc2c(C#N)c(SCCO)nc(N3CCOCC3)c2CO1", "activity, positive = re-replication": "inactive: 11.9%"}
{"smiles": "Cc1cc(C(=O)CSc2nnnn2-c2ccc(Cl)cc2)c(C)n1CC1CCCO1", "note": "(stereo not given)", "Potency": "inconclusive [activator, full curve, poor fit]"}
